{
  "source": "paper PMC4336329",
  "about": "(PLoS ONE, 2015)",
  "note": "About 2,200 (0.71%) of roughly 310,000 compounds showed an effect of 50% or more. Effects have a minus sign here. The list shows a part of the results.",
  "data": [
    {"target": "human ether-à-go-go-related gene (hERG) potassium channel (human, UniProt Q12809)", "sequence (Q12809 whole entry, looked up)": "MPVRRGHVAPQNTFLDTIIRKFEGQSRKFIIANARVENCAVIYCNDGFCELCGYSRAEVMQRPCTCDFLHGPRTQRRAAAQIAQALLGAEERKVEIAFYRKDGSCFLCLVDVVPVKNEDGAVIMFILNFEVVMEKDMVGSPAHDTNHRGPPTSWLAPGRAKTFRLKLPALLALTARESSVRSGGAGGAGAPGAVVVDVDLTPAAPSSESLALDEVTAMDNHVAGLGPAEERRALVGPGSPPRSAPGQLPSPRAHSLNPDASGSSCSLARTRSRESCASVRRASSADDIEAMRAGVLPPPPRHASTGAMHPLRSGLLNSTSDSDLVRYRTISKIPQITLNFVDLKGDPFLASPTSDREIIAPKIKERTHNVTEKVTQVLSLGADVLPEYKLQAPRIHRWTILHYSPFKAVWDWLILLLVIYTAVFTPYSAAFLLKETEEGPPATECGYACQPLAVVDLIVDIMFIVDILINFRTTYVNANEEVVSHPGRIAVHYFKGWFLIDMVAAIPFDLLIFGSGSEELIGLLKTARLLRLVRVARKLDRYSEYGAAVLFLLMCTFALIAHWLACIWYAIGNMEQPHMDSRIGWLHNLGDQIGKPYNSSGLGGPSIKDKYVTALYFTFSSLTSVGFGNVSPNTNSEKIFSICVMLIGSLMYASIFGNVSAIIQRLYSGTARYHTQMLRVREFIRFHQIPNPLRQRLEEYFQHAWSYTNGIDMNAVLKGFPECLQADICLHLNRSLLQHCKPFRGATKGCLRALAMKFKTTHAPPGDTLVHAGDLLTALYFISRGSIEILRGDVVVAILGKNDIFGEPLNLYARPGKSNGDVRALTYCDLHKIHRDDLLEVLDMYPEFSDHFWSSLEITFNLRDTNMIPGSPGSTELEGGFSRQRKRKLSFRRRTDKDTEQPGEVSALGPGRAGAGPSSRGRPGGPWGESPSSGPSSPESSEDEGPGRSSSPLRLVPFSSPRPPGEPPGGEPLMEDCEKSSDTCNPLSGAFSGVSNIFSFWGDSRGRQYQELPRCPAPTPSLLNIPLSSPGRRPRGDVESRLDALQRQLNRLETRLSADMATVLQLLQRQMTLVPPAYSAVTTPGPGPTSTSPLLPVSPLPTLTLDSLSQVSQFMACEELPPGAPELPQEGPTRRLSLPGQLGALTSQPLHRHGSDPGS", "assay": "primary screen, population patch clamp on CHO cells stably expressing hERG", "units": {"hERG current change (%, negative = inhibition) at 1uM": "%"}, "values": [
      {"compound": "CC(C)(C)OC(=O)N1CCC(Cc2cc(-c3cccnc3)no2)(C(=O)O)CC1", "hERG current change (%, negative = inhibition) at 1uM": 8.24},
      {"compound": "CCOc1cc(/C=C2/C(=O)NC(=O)N(c3ccc(CC)cc3)C2=O)ccc1OC(=O)c1cccs1", "hERG current change (%, negative = inhibition) at 1uM": 13.4},
      {"compound": "O=C(c1ccc(Cl)cc1)N1CCN=C1c1ccccc1", "hERG current change (%, negative = inhibition) at 1uM": 7.31},
      {"compound": "CCCNC(=O)Cn1cnc2sc(C(=O)NCCCN3CCOCC3)c(C)c2c1=O", "hERG current change (%, negative = inhibition) at 1uM": 2.09},
      {"compound": "CCOC(=O)c1cnc(-c2ccccc2)nc1Oc1ccc(Cl)c(Cl)c1", "hERG current change (%, negative = inhibition) at 1uM": 3.19},
      {"compound": "COCc1ccc(C(=O)NC2CCCN(Cc3ccccc3F)C2)o1", "note": "(centres unmarked)", "hERG current change (%, negative = inhibition) at 1uM": 9.3},
      {"compound": "O=C(C1CCN(S(=O)(=O)c2ccccc2)CC1)N1CCc2ccccc21", "hERG current change (%, negative = inhibition) at 1uM": 18.9},
      {"compound": "O=C(O)c1ccc(/C=N/NC(=O)C(O)(c2ccccc2)c2ccccc2)cc1", "hERG current change (%, negative = inhibition) at 1uM": 13.4},
      {"compound": "CC1(C)Cc2cccc(OCC(=O)O)c2O1", "hERG current change (%, negative = inhibition) at 1uM": 16.1},
      {"compound": "O=C(c1ccc(S(=O)(=O)Cc2ccccc2F)c([N+](=O)[O-])c1)N1CCCCCC1", "hERG current change (%, negative = inhibition) at 1uM": 10.3},
      {"compound": "CC(=O)c1c(C)n(-c2ccc(C)cc2)c2ccc(O)cc12", "hERG current change (%, negative = inhibition) at 1uM": 7.9},
      {"compound": "CCN1CCN(c2oc(-c3ccc([N+](=O)[O-])cc3)nc2C#N)CC1", "hERG current change (%, negative = inhibition) at 1uM": -0.266},
      {"compound": "CC(NC(=O)COC(=O)c1ccccc1Nc1ccccc1)c1ccccc1", "note": "(centres unmarked)", "hERG current change (%, negative = inhibition) at 1uM": -2.2},
      {"compound": "CCCCNC(=S)NCc1ccc2c(c1)cc(C)n2C", "hERG current change (%, negative = inhibition) at 1uM": 12.4},
      {"compound": "COc1ccc(NC(=O)C2CCCN(S(=O)(=O)c3c(C)n[nH]c3C)C2)c(OC)c1", "note": "(centres unmarked)", "hERG current change (%, negative = inhibition) at 1uM": 4.33},
      {"compound": "Cc1cc(C)c2c(c1)NC(c1cc3c(cc1Br)OCO3)C1CC=CC21", "note": "(centres unmarked)", "hERG current change (%, negative = inhibition) at 1uM": 10.8},
      {"compound": "CCS/C(N)=N/N=C/c1cc(C)ccc1O", "hERG current change (%, negative = inhibition) at 1uM": 11.9},
      {"compound": "CN1C(=O)CN=C(c2ccccc2Cl)c2cc(Br)ccc21", "hERG current change (%, negative = inhibition) at 1uM": 3.36},
      {"compound": "Cc1ccc(S(=O)(=O)N(C)CC(=O)N2CCN(Cc3ccccc3)CC2)cc1", "hERG current change (%, negative = inhibition) at 1uM": 4.48},
      {"compound": "Br.COc1ccc(N=C/C=C2/C=C(c3ccccc3)OC(C)(C)O2)cc1", "hERG current change (%, negative = inhibition) at 1uM": 1.14},
      {"compound": "O=C(Cc1ccccc1)NC(=S)Nc1ccc(N2CCCCC2)cc1", "hERG current change (%, negative = inhibition) at 1uM": 5.03},
      {"compound": "Cc1nnc(NC(=O)C2CCCCC2)s1", "hERG current change (%, negative = inhibition) at 1uM": 12},
      {"compound": "Cc1ccc([N+](=O)[O-])cc1S(=O)(=O)Nc1ccc(C(=O)NCc2ccccn2)cc1", "hERG current change (%, negative = inhibition) at 1uM": 22.9},
      {"compound": "CN(CC(=O)N1CCCC1)S(=O)(=O)c1cccc(Cl)c1", "hERG current change (%, negative = inhibition) at 1uM": 13},
      {"compound": "CCCCNC(=O)OCC(CC)NC(=O)OCC(C)C", "note": "(centres unmarked)", "hERG current change (%, negative = inhibition) at 1uM": 13.7},
      {"compound": "CCn1ncc(Br)c1C(=O)Nc1cc(C(=O)OC)ccc1C(=O)OC", "hERG current change (%, negative = inhibition) at 1uM": 3.18},
      {"compound": "CC(=O)Nc1ccc(S(=O)(=O)N2CCN(Cc3csc(C)n3)CC2)cc1", "hERG current change (%, negative = inhibition) at 1uM": 19.7},
      {"compound": "Nc1nnnn1/N=C/c1cccc(Br)c1", "hERG current change (%, negative = inhibition) at 1uM": 17.5},
      {"compound": "CCn1c2ccccc2c2cc(NC(=O)c3coc(=O)c(Br)c3)ccc21", "hERG current change (%, negative = inhibition) at 1uM": 10.5},
      {"compound": "CCOc1cc(/C=C2\\SC(=N)N(c3nccs3)C2=O)ccc1OCCN1CCOCC1", "hERG current change (%, negative = inhibition) at 1uM": -2.79},
      {"compound": "CCn1cc(C(=O)NCc2cccnc2)c(=O)c2cc(F)c(N3CCN(C(=O)c4ccco4)CC3)cc21", "hERG current change (%, negative = inhibition) at 1uM": 0.951},
      {"compound": "CCN1CCCc2cc(CN(CCN3CCOCC3)C(=S)Nc3cccc(C)c3)ccc21", "hERG current change (%, negative = inhibition) at 1uM": 12.6},
      {"compound": "O=C(CSc1ccccc1)Nc1ccc(-c2nc3ccccc3[nH]2)cc1", "hERG current change (%, negative = inhibition) at 1uM": 9.37},
      {"compound": "CSc1ccccc1NC(=O)CN1CCN(c2ccccn2)CC1", "hERG current change (%, negative = inhibition) at 1uM": 5},
      {"compound": "CC1=C(C(=O)N2CCOCC2)C(c2c(C)cc(C)cc2C)NC(=S)N1", "note": "(centres unmarked)", "hERG current change (%, negative = inhibition) at 1uM": 9.21},
      {"compound": "CN1CCN(c2ccc(NC(=O)c3ccc4c(c3)OCCO4)cc2Cl)CC1", "hERG current change (%, negative = inhibition) at 1uM": -21.1},
      {"compound": "O=C(NCCc1ccccc1)C(c1cccs1)N(C(=O)CCl)c1ccc(Cl)cc1", "note": "(centres unmarked)", "hERG current change (%, negative = inhibition) at 1uM": 5},
      {"compound": "CCOC(=O)c1cnc(SC)nc1Sc1ccccc1Cl", "hERG current change (%, negative = inhibition) at 1uM": 18.7},
      {"compound": "COc1cccc(/C=N/NC(=O)c2[nH]nc3c2CCc2ccccc2-3)c1O", "hERG current change (%, negative = inhibition) at 1uM": 10.2},
      {"compound": "Cn1c(SCc2ccc(Br)cc2)nc2c(c1=O)SCC2", "hERG current change (%, negative = inhibition) at 1uM": 17.4},
      {"compound": "CC(=O)Nc1ccc(S(=O)(=O)Nc2nc3ccccc3nc2N2CCc3ccccc3C2)cc1", "hERG current change (%, negative = inhibition) at 1uM": 6.78},
      {"compound": "CC(C)CN1CCN(Cc2nc3ccccc3s2)CC1CCO", "note": "(centres unmarked)", "hERG current change (%, negative = inhibition) at 1uM": -5.53},
      {"compound": "O=S1(=O)CCN=C2SC3=C(CCCC3)N21", "hERG current change (%, negative = inhibition) at 1uM": 9.27},
      {"compound": "Cc1ccc(C2/C(=C(/O)c3ccc4c(c3)CC(C)O4)C(=O)C(=O)N2CCCn2ccnc2)cc1", "note": "(centres unmarked)", "hERG current change (%, negative = inhibition) at 1uM": 18.8}
    ]}
  ]
}
